Reference: PubChem BioAssay AID488969 (Vanderbilt High Throughput Screening Facility, 2010)
Over roughly 110,000 compounds, “z-score” has its median near -0.1; the highest 2% begin near 2. The list shows a part of the results.

These molecules were tested against Metabotropic glutamate receptor 8 (Rattus norvegicus) (UniProt P70579) (assay: mGluR8 Gi/Go-coupled signaling modulation – cell-based, rat, thallium flux, HTS, primary screen (AID 488969)). Conditions: HEK293 rat mGluR8, GIRK (G protein-gated inwardly rectifying potassium channel) thallium flux, FluoZin2; at 10 µM; stronger effect = higher value; submaximal glutamate (EC20) added with thallium.
UniProt P70579, sequence (P70579 whole entry, looked up): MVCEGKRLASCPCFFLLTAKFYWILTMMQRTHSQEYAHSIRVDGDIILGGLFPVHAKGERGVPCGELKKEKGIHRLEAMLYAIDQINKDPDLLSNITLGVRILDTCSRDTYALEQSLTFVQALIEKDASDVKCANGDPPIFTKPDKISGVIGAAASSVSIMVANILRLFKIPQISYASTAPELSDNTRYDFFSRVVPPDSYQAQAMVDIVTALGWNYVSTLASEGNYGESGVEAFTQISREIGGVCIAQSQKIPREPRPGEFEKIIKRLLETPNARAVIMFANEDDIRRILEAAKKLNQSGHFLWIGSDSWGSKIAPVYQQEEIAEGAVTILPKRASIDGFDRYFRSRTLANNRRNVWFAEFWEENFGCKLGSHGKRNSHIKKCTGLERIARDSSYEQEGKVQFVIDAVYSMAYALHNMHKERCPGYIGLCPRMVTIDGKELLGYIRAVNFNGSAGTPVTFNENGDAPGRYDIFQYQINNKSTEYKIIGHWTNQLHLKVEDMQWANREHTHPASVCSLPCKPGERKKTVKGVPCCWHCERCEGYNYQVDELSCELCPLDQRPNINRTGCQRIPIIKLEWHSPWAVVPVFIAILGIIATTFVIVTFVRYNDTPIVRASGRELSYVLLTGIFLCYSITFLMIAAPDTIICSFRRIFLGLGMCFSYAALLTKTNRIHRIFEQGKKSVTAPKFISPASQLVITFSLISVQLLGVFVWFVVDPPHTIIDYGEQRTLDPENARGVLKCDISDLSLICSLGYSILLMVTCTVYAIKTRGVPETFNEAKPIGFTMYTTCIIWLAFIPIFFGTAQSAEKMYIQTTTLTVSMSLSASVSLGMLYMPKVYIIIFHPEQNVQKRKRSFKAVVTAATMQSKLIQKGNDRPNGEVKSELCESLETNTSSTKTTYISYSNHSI

SMILES | z-score
Cc1cc(NC(=O)CSc2nc(-c3ccc(Cl)cc3)cs2)no1 | 0.219
Cc1cnc(NC(=O)CSc2c(Cl)cccc2Cl)s1 | -0.212
O=C(Nc1cnccn1)c1cccnc1 | 0.255
Cc1cccc(NC(=O)CN(C)S(=O)(=O)c2ccc(Br)cc2)n1 | 0.0747
COc1ccc2oc(=O)c(C(=O)N3CCN(c4ccccc4F)CC3)cc2c1 | -0.0962
CC(=O)C1C(c2ccc(C)cc2)c2c(n[nH]c2C)CC1(C)O (stereo not given) | -0.966
COc1ccc(/C=C2\SC(=O)N=C2N)cc1 | -0.385
O=C1/C(=C/c2cccnc2)Oc2cc(OS(=O)(=O)c3ccc(F)cc3)ccc21 | -0.393
N=c1c(C(=O)NC2CCCC2)cc2c(=O)n3ccccc3nc2n1C1CCCC1 | -0.736
O=C(CSc1nnc(CNC(=O)c2cccs2)o1)Nc1cccc(C(F)(F)F)c1 | -0.458
CCC(Oc1ccc2ccccc2c1)C(=O)O (stereo not given) | -0.0519
CSC1=N/C(=C\C=C\c2cccs2)C(=O)S1 | -0.171
O=[N+]([O-])c1nn(-c2ccc3c(c2)OCCO3)n(O)c1=NCc1ccc(F)cc1 | -0.3
O=C1CSC(c2ccc(Cl)cc2)N1 (stereo not given) | 0.239
O=C(c1ccco1)N1CCN(C(=O)C2CC(c3ccc(Cl)cc3)=NO2)CC1 (stereo not given) | -0.332
COc1ccc(/C=C/C(=O)NCc2cn(C)nc2C)cc1COc1ccc(Cl)cc1Br | -0.0945
CCCCC(CC)CNC(=O)c1ccc2c(c1)OCO2 (stereo not given) | -0.00547
Cc1ccc(/C=C/C2=Cc3c(sc(NC(=O)CSc4n[nH]c(N)n4)c3C#N)C(C)(C)C2)o1 | -0.156
CCCN1CCN(C(=O)c2ccc(Sc3ccc(C)cc3)c(NC(C)=O)c2)CC1 | 0.0178
Cc1ccc(S(=O)(=O)N2CCN(CC(=O)N/N=C\C(Cl)=C\c3ccccc3)CC2)cc1 | 0.00578
COc1c(Cl)ccc(Cl)c1C(=O)NC(=O)N1CCOCC1 | -0.808
CN1CCN(C(=O)c2ccc(CN3CCOCC3)cc2)CC1 | 0.0375
O=C(CCn1nc(-c2ccccc2)ccc1=O)N1CCOCC1 | 0.676
COc1ccc(COC(=O)N/N=C(\C)CC(=O)Nc2c(C)cc(C)cc2C)cc1 | -0.78
OC1CCN(c2c3c(nc4cc(-c5ccc(F)cc5)nn24)CCC3)CC1 | -0.132
CCc1ccc(S(=O)(=O)NCCc2csc(-c3ccccc3)n2)s1 | -0.301
O=C(OC(C(=O)NC1CCCCC1)c1ccccn1)c1cccs1 (stereo not given) | 0.139
CCOc1ccc(CCNC(=O)CCc2nc(-c3ccc(C)cc3)no2)cc1OCC | 0.33

SMILES | z-score
CCN1CCN(Cc2ccc(NC(=O)CC3Oc4ccc(C)cc4NC3=O)cc2)CC1 (stereo not given) | 0.769
COc1ccc(/C=C/C(=O)O)cc1COc1ccccc1C | 0.295
COc1ccc(NC(=O)CN2C(=O)c3cccc4cccc2c34)cc1OC | 0.287
CCC1(C)N=C(c2ccc3c(c2)OCO3)CC(c2ccccc2O)N1 (stereo not given) | 0.0814
CCOC(=O)/C(C#N)=C/c1ccc(OCC(=O)Nc2ccc(OC)cc2)c(OC)c1 | 0.00326
COc1ccc2c(CC(=O)N(C)CC3COc4ccccc4O3)coc2c1 (stereo not given) | -0.3
COc1cccc(C2N(c3ccc(Cl)cc3)C(=O)C3CCCN32)c1 (stereo not given) | 0.714
Nc1cccc2c1C(=O)N(C(=O)c1ccc(S(=O)(=O)N3CCCCCC3)cc1)C2=O | -0.167
CCCn1c(SCC(=O)N2CCCCC2)nnc1-c1ccco1 | -0.171
COc1cc2c(cc1NC(=O)CN1CCN(S(=O)(=O)c3ccc(C)cc3)CC1)oc1ccccc12 | -0.503
O=C(NC12CC3CC(CC(C3)C1)C2)C1CCCN1C(=O)NC1CCCCC1 (stereo not given) | 0.22
COC(=O)Sc1nc(N2CCOCC2)c2c(c1C#N)CC(C)(C)OC2 | -2.52
Cc1cc(C)cc(N2C(=O)CC(Sc3nnnn3-c3ccccc3)C2=O)c1 (stereo not given) | -0.0438
C=CCN=C1SCC(=O)N1S(=O)(=O)c1ccccc1 | -0.016
COc1ccc(OCc2nnc(SCC(=O)O)n2N)cc1 | 0.134
N#CC1=C(N)Oc2n[nH]c(-c3ccncc3)c2C1c1ccsc1 (stereo not given) | -0.452
CC(C)(C#CCN1CCCC1)OCCC#N | -0.108
COCCn1c(SCC(=O)Nc2ccc(Cl)c(S(=O)(=O)N(C)C)c2)nc2ccccc21 | -1.27
COc1ccc(CN2CCSCC2)cc1C | -0.691
COc1cc(NC(=O)CN2CCN(c3ccccc3)CC2)c(C)cc1[N+](=O)[O-] | -0.248
Cc1ccc(C2=[N+]([O-])C3(CCCCC/C3=N\NC(N)=S)N(O)C2(C)C)o1 (stereo not given) | -0.236
CC1CCCCN1CCNC(=O)c1cnn2ccccc12 (stereo not given) | -0.129
CC(C)CCn1nc(C(=O)Nc2nc3c(s2)CCCC3)c2ccccc2c1=O | 0.157
Cc1ccc(N(CC(=O)Nc2cccc(N(C)S(C)(=O)=O)c2)S(C)(=O)=O)cc1 | 0.0836
C[C@H](NC(=O)OC(C)(C)C)c1nnc(SCC(=O)Nc2ccc(Br)cc2)o1 | 0.205
O=[N+]([O-])c1cccc(/C=C/c2nc(C=Nc3ccccc3)c(O)o2)c1 | -0.161
CCc1ccc(C(C(=O)NCc2ccc(OC)cc2)N(CCOC)C(=O)Cc2cccs2)cc1 (stereo not given) | -0.37
